Data as given in paper PMC6134095 (2018).

T1: FtsL (58–121), periplasmic domain of E. coli FtsL (E. coli, UniProt P0AEN4 58-121)
T1 chain: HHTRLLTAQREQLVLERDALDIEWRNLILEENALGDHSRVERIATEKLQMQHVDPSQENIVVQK

B1: FtsQ ([…]), periplasmic domain of E. coli FtsQ (domain or fragment)
chain: not shown
B2: FtsQ ([…]) and FtsB ([…]) added together (complex)
chain 1: [about 200 residues cut from this listing]
chain 2: GKNGIHDYTRVNDDVAAQQATNAKLKARNDQLFAEIDDLNGGQEALEERARNELSMTRPGETFYRLVPDASKRAQSAGQNNR

Tests used:
Test in all cases: SPR
FtsB R72A [1] = molecular target: T2, FtsB R72A (E. coli, UniProt P0A6S5 22-103, R72A)
FtsB F84A [2] = molecular target: T3, FtsB F84A (E. coli, UniProt P0A6S5 22-103, F84A)
FtsB R72A [3] = molecular target: T2, FtsB R72A; remark: listed apart in the source
FtsB F84A [4] = molecular target: T3, FtsB F84A; remark: listed apart in the source
[5] = molecular target: T1, FtsL (58–121), periplasmic domain of E. …

Binder | koff (FtsB R72A [1]) [s⁻¹] | koff (FtsB F84A [2]) [s⁻¹] | Kd (FtsB R72A [3]) [µM] | Kd (FtsB F84A [4]) [µM] | koff [5] [s⁻¹]
B1 | 0.015 | 0.014 | 26 | 38 | 
B2 |  |  |  |  | 0.045
